PubChem BioAssay AID2546 (National Center for Advancing Translational Sciences (NCATS), 2010)
Among all 310,000 compounds or so, about 11,000 (3.5%) were called active. The shares of active, inactive and inconclusive entries below differ from those in the screen. Calls come from the whole dose curve; as a rule, active = well fitted inhibition curve with a large enough effect; inconclusive = small, poorly fitted or top-dose-only effect, or effect the other way; inactive = flat fitted curve, though single readings scatter. No potency is given beside an inconclusive call; the fits are too rough.

assay: VP16 counterscreen qHTS for inhibitors of ROR gamma transcriptional activity; conditions: Drosophila S2 Gal4-VP16 UAS-luciferase, luminescence, 20 h; series mostly up to 53.6 µM;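 note: Gal4-VP16 expression switched on by copper sulfate through the metallothionein promoter; nearly all actives have a fitted effect of over 50% in size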
Potency is the fitted concentration of half-maximal effect; tags give direction and shape of the fitted curve.

Q: With `CCOc1ccc(S(=O)(=O)N2CCN(C)CC2)cc1NC(=O)c1ccccc1F` as the compound, how does the Potency read?
A: The Potency was inconclusive [inhibitor, single point].

Q: Which Potency does the source give for `CCNC(=S)NNC(=O)CCn1cc(C)cn1` here?
A: Its Potency is inconclusive [inhibitor, single point].

Q: Which Potency does the source give for `N=c1occ(C(=O)c2cc(F)ccc2O)cc1C(=O)NC1CCCCC1` here?
A: The Potency was “inactive”.

Q: Which Potency does the source give for `OC(CN1CCN(c2cccc(C(F)(F)F)c2)CC1)c1c[nH]c2ccccc12` (stereo not given) here?
A: Its Potency is inconclusive [inhibitor, single point].

Q: Which Potency does the source give for `CCCCNc1nc(N(C)c2ccccc2)nc(-n2ccnc2)n1` here?
A: The Potency was inconclusive [inhibitor, single point].

Q: For `COC(=O)/C=C/c1ccc(OC(=O)c2ccncc2)cc1`, which Potency is on record?
A: Its Potency is “inactive”.

Q: Which Potency does the source give for `COc1ccc(C(=O)NCC(=O)OCC(=O)Nc2cc([N+](=O)[O-])ccc2F)cc1` here?
A: Its Potency is “inactive”.

Q: Which Potency does the source give for `COc1cccc(-c2csc(N3CCN(C(=S)Nc4ccccc4Cl)CC3)n2)c1` here?
A: The Potency was inconclusive [inhibitor, single point].

Q: For `O=C(Nc1nnc(-c2cccs2)o1)C1CC1`, which Potency is on record?
A: Its Potency is active: 7.08 µM.

Q: With `COc1ccc(CCN(Cc2nc3ccccc3c(=O)[nH]2)C(=O)c2ccco2)cc1` as the compound, how does the Potency read?
A: The Potency was inconclusive [inhibitor, single point].

Q: With `C=C(C)CNC(=S)NNC(=O)c1ccc(Br)cc1` as the compound, how does the Potency read?
A: Its Potency is inconclusive [inhibitor, partial curve].

Q: Which Potency does the source give for `CC(C)(C)c1ccc(S(=O)(=O)Nc2ccc(Cc3ccncc3)cc2)cc1` here?
A: Its Potency is inconclusive [inhibitor, single point].

Q: Which Potency does the source give for `CSC(=S)N/N=C/c1ccc(N(C)C)cc1` here?
A: Its Potency is active: 2 µM.

Q: Which Potency does the source give for `CCCCOc1ccc(C(=O)OC2CC(C)N(C)CC2C)cc1` (stereo not given) here?
A: Its Potency is “inactive”.

Q: With `CCCOc1ccc(C(=O)CCNC(Cc2c[nH]c3ccccc23)C(=O)O)cc1` (stereo not given) as the compound, how does the Potency read?
A: The Potency was inconclusive [inhibitor, single point].

Q: Which Potency does the source give for `COc1cccc(/C=N\NC(=O)C2=NNC(=O)C2C)c1O` (stereo not given) here?
A: The Potency was inconclusive [inhibitor, partial curve].

Q: Which Potency does the source give for `CCCCCn1c(CN2CCN(c3cccc(Cl)c3)CC2)nc2c1c(=O)n(C)c(=O)n2C` here?
A: The Potency was inconclusive [inhibitor, single point].

Q: For `O=C(Nc1nccs1)c1ccc(-c2ccccc2[N+](=O)[O-])o1`, which Potency is on record?
A: The Potency was inconclusive [inhibitor, single point].

Q: For `O=C(c1nnc(-c2ccc(Cl)cc2)o1)C1CCCC1`, which Potency is on record?
A: Its Potency is inconclusive [activator, single point].

Q: With `O=C1CCCN1c1ccc(S(=O)(=O)Nc2ccc3c(c2)OCCO3)cc1` as the compound, how does the Potency read?
A: Its Potency is inconclusive [inhibitor, single point].

Q: For `O=C(Cc1csc(Nc2nc(=S)[nH]c3ccccc23)n1)NCCCN1CCN(c2ccccc2F)CC1`, which Potency is on record?
A: Its Potency is active: 10 µM.

Q: For `Cc1ccc(C(=O)NNc2c3ccccc3nc3ccccc23)cc1`, which Potency is on record?
A: The Potency was inconclusive [inhibitor, single point].

Q: For `O=C(c1ccc2c(=O)n(Cc3ccccc3Cl)c(=S)[nH]c2c1)N1CCCC1`, which Potency is on record?
A: The Potency was inconclusive [inhibitor, single point].

Q: Which Potency does the source give for `CC(C)(C)OC(=O)N1C=CCC1CN1C(=O)COCC1=O` (stereo not given) here?
A: Its Potency is “inactive”.

Q: For `Cc1cccc(Cn2c(Cc3ccccc3)nc3ccccc32)c1`, which Potency is on record?
A: The Potency was active: 4.47 µM.

Q: For `CCc1nnc(NC(=O)c2sc3nc4c(cc3c2N)CCCCC4)s1`, which Potency is on record?
A: The Potency was inconclusive [inhibitor, single point].

Q: Which Potency does the source give for `Cc1ccc(Cl)cc1NC(=O)C1CCCN1S(=O)(=O)c1ccc(-c2ccc(=O)[nH]n2)s1` (stereo not given) here?
A: The Potency was inconclusive [inhibitor, single point].

Q: Which Potency does the source give for `N#Cc1c(NC(=O)c2ccc([N+](=O)[O-])o2)sc2c1CCC2` here?
A: Its Potency is inconclusive [inhibitor, full curve, poor fit].

Q: For `Cc1ccc(C)c(NS(=O)(=O)c2cc(C(=O)NCc3ccco3)ccc2C)c1`, which Potency is on record?
A: The Potency was inconclusive [inhibitor, single point].

Q: Which Potency does the source give for `Cc1ccc2c(c1)nnn2C1CCN(S(=O)(=O)c2ccc(C(=O)N3C(C)CCCC3C)cc2)CC1` (stereo not given) here?
A: The Potency was active: 15.8 µM.

Q: Which Potency does the source give for `CC(=O)NC(Cc1ccccc1F)C(=O)NC1CCN(C(=O)NCc2ccccc2)CC1` (stereo not given) here?
A: Its Potency is “inactive”.

Q: For `Cc1ccccc1-c1nc(Nc2ccncc2)c2ccccc2n1`, which Potency is on record?
A: The Potency was “inactive”.

Q: With `CC1(C)Cc2c(cnn2-c2ccc(F)cc2)C(NC(=O)CCN2CCCC2=O)C1` (stereo not given) as the compound, how does the Potency read?
A: Its Potency is inconclusive [inhibitor, single point].

Q: With `Cc1cccc2sc(N(CCN(C)C)C(=O)/C=C/c3cccs3)nc12` as the compound, how does the Potency read?
A: The Potency was inconclusive [inhibitor, single point].

Q: Which Potency does the source give for `CCc1nnc(NC(=O)CSc2nnc(-c3ccco3)o2)s1` here?
A: Its Potency is inconclusive [inhibitor, single point].

Q: Which Potency does the source give for `CCN(Cc1ccccc1)c1ccc(/C=N/N=C(N)N)cc1` here?
A: Its Potency is inconclusive [inhibitor, single point].

Q: With `Cc1cc(=O)oc2c(CN(C)Cc3ccccc3)c(O)ccc12` as the compound, how does the Potency read?
A: Its Potency is “inactive”.

Q: Which Potency does the source give for `Cc1cccc(NC(=S)Nc2ccc(Oc3ccccc3)cc2)n1` here?
A: The Potency was inconclusive [inhibitor, single point].

Q: Which Potency does the source give for `Cc1cc(C)c(C)c(/C=C(/C#N)C(N)=S)c1C` here?
A: Its Potency is active: 15.8 µM.

Q: Which Potency does the source give for `Cc1cc(C)n2nc(C(=O)N/N=C/c3c4ccccc4cc4ccccc34)nc2n1` here?
A: The Potency was active: 17.8 µM.

Q: With `O=C(N/N=C/c1ccccc1O)c1cc(=O)[nH]c2ccccc12` as the compound, how does the Potency read?
A: Its Potency is inconclusive [inhibitor, single point].

Q: For `C=CCSc1nnc(NC(=O)c2cccc(S(=O)(=O)N(C)c3ccccc3)c2)s1`, which Potency is on record?
A: Its Potency is inconclusive [inhibitor, single point].

Q: For `CC(C)(C)C1CCc2c(sc(NC(=O)CSc3nnc(-c4ccccc4)o3)c2C#N)C1` (stereo not given), which Potency is on record?
A: The Potency was inconclusive [activator, single point].

Q: With `C=C(C)CSc1nc2sc3c(c2c(=O)n1-c1ccc(OC)cc1)CCN(C)C3` as the compound, how does the Potency read?
A: The Potency was “inactive”.

Q: With `Clc1ccc(/C=N/NC2=Nc3cccc4cccc2c34)cc1` as the compound, how does the Potency read?
A: The Potency was active: 14.1 µM.

Q: Which Potency does the source give for `CCc1nc(N2CCCC(C)C2)c2oc3ccccc3c2n1` (stereo not given) here?
A: Its Potency is active: 3.98 µM.

Q: With `c1ccc2c(CSCc3nc4ccccc4[nH]3)cccc2c1` as the compound, how does the Potency read?
A: Its Potency is inconclusive [inhibitor, single point].

Q: Which Potency does the source give for `O=C1CCC(c2ccc3c(c2)CCC3)=NN1` here?
A: The Potency was “inactive”.

Q: With `Cc1ccc(S(=O)(=O)CCc2nnc(NC(=O)CCl)s2)cc1C` as the compound, how does the Potency read?
A: Its Potency is inconclusive [inhibitor, single point].

Q: For `CCCCC(=O)NNC(=S)NC(=O)c1ccc(C)cc1`, which Potency is on record?
A: Its Potency is active: 17.8 µM.

Q: Which Potency does the source give for `CCOC(=O)N1CCN(C(=O)c2ccc3c(c2)N(Cc2ccc(C)cc2)CCS3)CC1` here?
A: Its Potency is inconclusive [inhibitor, single point].

Q: Which Potency does the source give for `C=C1CCc2c([nH]c3ccc(OCC(C)C)cc23)C1=O` here?
A: Its Potency is inconclusive [inhibitor, single point].

Q: With `CCOC(=O)C1CCCN(C(=O)CSc2nccn2C)C1` (stereo not given) as the compound, how does the Potency read?
A: Its Potency is “inactive”.

Q: Which Potency does the source give for `O=C1OCC2OC(O)C(O)C(O)C2OC(=O)c2cc(O)c(O)c(O)c2-c2c(O)c(O)c3oc(=O)c4c(c(O)c(O)c5oc(=O)c2c3c54)-c2c1cc(O)c(O)c2O` (stereo not given) here?
A: Its Potency is “inactive”.

Q: Which Potency does the source give for `COc1ccc(C2=Nn3c([n+](C)c4ccccc43)SC2)cc1` here?
A: The Potency was inconclusive [inhibitor, single point].

Q: Which Potency does the source give for `Cc1ccc(-c2nnc(-c3ccccc3Br)o2)cc1` here?
A: The Potency was inconclusive [inhibitor, single point].

Q: Which Potency does the source give for `Cc1ccc(-c2nnc3sc(C4COc5ccccc5O4)nn23)cc1` (stereo not given) here?
A: The Potency was “inactive”.

Q: With `O=C(NC(=S)NNC(=O)c1ccccc1F)c1cccnc1` as the compound, how does the Potency read?
A: The Potency was inconclusive [inhibitor, single point].

Q: For `COC(=O)C1=C(C)N(Cc2ccccc2)C(=NCC(C)C)N[C@H]1c1ccc(Br)cc1`, which Potency is on record?
A: Its Potency is active: 7.08 µM.

Q: Which Potency does the source give for `S=C1NCN(C2CCCCC2)CN1CCc1ccccc1` here?
A: The Potency was active: 3.98 µM.

Q: With `S=c1[nH]c(-c2ccccc2)cn1/N=C/c1ccccc1Br` as the compound, how does the Potency read?
A: The Potency was inconclusive [inhibitor, partial curve].

Q: For `Cc1c(C)c2ccc(OCC(=O)N3CCC(C(=O)O)CC3)cc2oc1=O`, which Potency is on record?
A: Its Potency is “inactive”.

Q: With `C/C(=N/NC(=O)c1ccc(Cl)s1)c1cccnc1` as the compound, how does the Potency read?
A: Its Potency is inconclusive [inhibitor, single point].

Q: For `CC(C)(C)C1CCC(=NNc2ncc(C(F)(F)F)cc2Cl)CC1` (stereo not given), which Potency is on record?
A: The Potency was active: 11.2 µM.

Q: Which Potency does the source give for `CCCn1c(C2CCCN2c2nc(-c3ccc(OC)cc3)cs2)nc2ccccc21` (stereo not given) here?
A: Its Potency is inconclusive [inhibitor, single point].

Q: For `COCCNC(=O)CCC1CCN(Cc2ccc(-c3ccccc3)cc2)CC1`, which Potency is on record?
A: The Potency was “inactive”.

Q: Which Potency does the source give for `Cc1c(Cl)ccc2c(C(=O)NCCCn3nccc3C)cc(-c3ccccn3)nc12` here?
A: The Potency was “inactive”.

Q: Which Potency does the source give for `COc1cccc(NC(=O)C2CCCN(S(=O)(=O)c3cccc4nsnc34)C2)c1` (stereo not given) here?
A: The Potency was “inactive”.

Q: Which Potency does the source give for `Cc1ccc(-n2cc(CN(C)Cc3nccn3C)c(-c3cccc(C)c3)n2)cc1` here?
A: Its Potency is inconclusive [inhibitor, single point].

Q: For `Cc1cccc(C(=O)NN2S(=O)(=O)c3ccccc3S2(=O)=O)c1`, which Potency is on record?
A: The Potency was “inactive”.

Q: Which Potency does the source give for `Cc1ccc(-c2ccc(/C=N/NC(N)=S)o2)cc1` here?
A: Its Potency is active: 2.51 µM.

Q: Which Potency does the source give for `NC(=O)C1CCN(c2nc(C3CC3)nc3c2nnn3Cc2ccccc2)CC1` here?
A: Its Potency is “inactive”.

Q: Which Potency does the source give for `COc1ccc2oc(C(=O)OCC(=O)NC3CCCC3)c(C)c2c1` here?
A: The Potency was inconclusive [activator, single point].

Q: Which Potency does the source give for `COc1ccc(OC)c(S(=O)(=O)N2CCCCCC2)c1` here?
A: Its Potency is “inactive”.

Q: For `COc1ccc2c(c1OC)C(=O)N1N=C(c3ccc(Br)cc3)CC21` (stereo not given), which Potency is on record?
A: The Potency was inconclusive [inhibitor, full curve].
